Laboratory results published in the supplement of paper PMC8728848.
The list shows a part of the results.

Columns and labels:
Test in all cases: glycan array binding signal (z-score within array); higher = stronger binding
Settings in all cases: glycan notation: IUPAC condensed, linker removed
[1] = target: Neu5Ac(a2-6)GlcNAc(b1-4)GlcNAc(b1-4)GlcNAc
Procedure, shortened: (§1)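 From the Consortium for Functional Glycomics database, 3228 arrays were curated, keeping only those whose protein sequence was available. Binding is given as a within-array Z-score averaged across arrays sharing a protein sequence and across linkers. Negative Z-scores can be read as non-binding.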

Neu5Ac(a2-8)Neu5Ac = target: Neu5Ac(a2-8)Neu5Ac
Procedure, shortened: as §1

[2] = target: Neu5Ac(a2-8)Neu5Ac(a2-3)Gal(b1-3)GalNAc(b1-4)[Neu5Ac(a2-3)]Gal(b1-4)Glc
Procedure, shortened: as §1

[3] = target: Neu5Ac(a2-8)Neu5Ac(a2-3)Gal(b1-3)GalNAc(b1-4)[Neu5Ac(a2-8)Neu5Ac(a2-3)]Gal(b1-4)Glc
Procedure, shortened: as §1

[4] = target: Neu5Ac(a2-8)Neu5Ac(a2-3)Gal(b1-4)Glc
Procedure, shortened: as §1

[5] = target: Neu5Ac(a2-8)Neu5Ac(a2-3)Gal(b1-4)GlcNAc
Procedure, shortened: as §1

[6] = target: Neu5Ac(a2-8)Neu5Ac(a2-3)[Gal(b1-3)GalNAc(b1-4)]Gal(b1-4)Glc
Procedure, shortened: as §1

[7] = target: Neu5Ac(a2-8)Neu5Ac(a2-3)[GalNAc(b1-4)]Gal(b1-4)Glc
Procedure, shortened: as §1

[8] = target: Neu5Ac(a2-8)Neu5Ac(a2-8)Neu5Ac
Procedure, shortened: as §1

[9] = target: Neu5Ac(a2-8)Neu5Ac(a2-8)Neu5Ac(a2-3)Gal(b1-4)Glc
Procedure, shortened: as §1

[10] = target: Neu5Ac(a2-8)Neu5Ac(a2-8)Neu5Ac(a2-3)[Gal(b1-3)GalNAc(b1-4)]Gal(b1-4)Glc
Procedure, shortened: as §1

[11] = target: Neu5Ac(a2-8)Neu5Ac(a2-8)Neu5Ac(a2-3)[GalNAc(b1-4)]Gal(b1-4)Glc
Procedure, shortened: as §1

[12] = target: Neu5Ac(a2-8)Neu5Ac(a2-8)Neu5Ac(a2-8)Neu5Ac(a2-3)[GalNAc(b1-4)]Gal(b1-4)Glc
Procedure, shortened: as §1

[13] = target: Neu5Ac(a2-8)Neu5Gc(a2-3)Gal(b1-4)GlcNAc
Procedure, shortened: as §1

[14] = target: Neu5Ac(b2-6)Gal(b1-4)GlcNAc
Procedure, shortened: as §1

Neu5Ac(b2-6)GalNAc = target: Neu5Ac(b2-6)GalNAc
Procedure, shortened: as §1

[15] = target: Neu5Ac9Ac(a2-3)Gal(b1-4)GlcNAc
Procedure, shortened: as §1

[16] = target: Neu5Ac9Ac(a2-6)Gal(b1-4)GlcNAc
Procedure, shortened: as §1

[17] = target: Neu5Gc(a2-3)Gal(b1-3)GlcNAc
Procedure, shortened: as §1

[18] = target: Neu5Gc(a2-3)Gal(b1-3)[Fuc(a1-4)]GlcNAc
Procedure, shortened: as §1

Neu5Gc(a2-3)Gal(b1-4)Glc = target: Neu5Gc(a2-3)Gal(b1-4)Glc
Procedure, shortened: as §1

[19] = target: Neu5Gc(a2-3)Gal(b1-4)GlcNAc
Procedure, shortened: as §1

[20] = target: Neu5Gc(a2-3)Gal(b1-4)GlcNAc(b1-3)Gal(b1-4)GlcNAc(b1-2)Man(a1-3)[Neu5Gc(a2-3)Gal(b1-4)GlcNAc(b1-3)Gal(b1-4)GlcNAc(b1-2)Man(a1-6)]Man(b1-4)GlcNAc(b1-4)GlcNAc
Procedure, shortened: as §1

[21] = target: Neu5Gc(a2-3)Gal(b1-4)[Fuc(a1-3)]GlcNAc
Procedure, shortened: as §1

[22] = target: Neu5Gc(a2-6)Gal(b1-4)GlcNAc
Procedure, shortened: as §1

Neu5Gc(a2-6)GalNAc = target: Neu5Gc(a2-6)GalNAc
Procedure, shortened: as §1

[23] = target: Neu5Gc(a2-8)Neu5Ac(a2-3)Gal(b1-4)GlcNAc
Procedure, shortened: as §1

[24] = target: Neu5Gc(a2-8)Neu5Gc(a2-3)Gal(b1-4)GlcNAc
Procedure, shortened: as §1

[25] = target: Neu5Gc(a2-8)Neu5Gc(a2-3)Gal(b1-4)GlcNAc(b1-3)Gal(b1-4)GlcNAc
Procedure, shortened: as §1

[26] = target: Neu5Gc(a2-8)Neu5Gc(a2-6)Gal(b1-4)GlcNAc
Procedure, shortened: as §1

[27] = target: Neu5Gc(b2-6)Gal(b1-4)GlcNAc
Procedure, shortened: as §1

B1: ECL (Erythrina cristagalli), Q6YD91 (protein)
chain: VETISFSFSEFEPGNNDLTLQGAAIITQSGVLQLTKINQNGMPAWDSTGRTLYTKPVHIWDMTTGTVASFETRFSFSIEQPYTRPLPADGLVFFMGPTKSKPAQGYGYLGVFNNSKQDNSYQTLAVEFDTFSNPWDPPQVPHIGIDVNSIRSIKTQPFQLDNGQVANVVIKYDASSKILLAVLVYPSSGAIYTIAEIVDVKQVLPEWVDVGLSGATGAQRDAAETHDVYSWSFHASLPETND
[1]
  glycan array binding signal (z-score): -0.097
Neu5Ac(a2-8)Neu5Ac
  glycan array binding signal (z-score): -0.148
[2]
  glycan array binding signal (z-score): -0.397
[3]
  glycan array binding signal (z-score): 0.104
[4]
  glycan array binding signal (z-score): -0.433
[5]
  glycan array binding signal (z-score): -0.332
[6]
  glycan array binding signal (z-score): -0.174
[7]
  glycan array binding signal (z-score): -0.001
[8]
  glycan array binding signal (z-score): -0.307
[9]
  glycan array binding signal (z-score): -0.343
[10]
  glycan array binding signal (z-score): -0.186
[11]
  glycan array binding signal (z-score): -0.136
[12]
  glycan array binding signal (z-score): -0.326
[13]
  glycan array binding signal (z-score): -0.457
[14]
  glycan array binding signal (z-score): -0.539
Neu5Ac(b2-6)GalNAc
  glycan array binding signal (z-score): -0.388
[15]
  glycan array binding signal (z-score): -0.223
[16]
  glycan array binding signal (z-score): -0.328
[17]
  glycan array binding signal (z-score): -0.291
[18]
  glycan array binding signal (z-score): -0.155
Neu5Gc(a2-3)Gal(b1-4)Glc
  glycan array binding signal (z-score): -0.117
[19]
  glycan array binding signal (z-score): -0.328
[20]
  glycan array binding signal (z-score): -0.151
[21]
  glycan array binding signal (z-score): -0.217
[22]
  glycan array binding signal (z-score): -0.324
Neu5Gc(a2-6)GalNAc
  glycan array binding signal (z-score): -0.301
[23]
  glycan array binding signal (z-score): -0.563
[24]
  glycan array binding signal (z-score): -0.493
[25]
  glycan array binding signal (z-score): -0.37
[26]
  glycan array binding signal (z-score): -0.387
[27]
  glycan array binding signal (z-score): -0.173
